The supplement of paper PMC8007513
Structures can show the parent of a compound that is named as a salt. ± gives the standard error. The whole screen tested about 1,300 compounds, of which about 130 (10%) showed an effect of 50% or more. The entries are a selection whose mix differs from that of the whole data set.

Test system: Trichoderma virens ATCC 9645
Experiment: growth yield (OD600) with compound + IPBC relative to untreated control; higher = less growth inhibition
Details: compound concentration: 100 uM, IPBC concentration: 200 ng/ml
How it was run: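 Library compounds (100 μM final), with or without a co-applied biocide (200 ng ml^−1), were added to 100 μl aliquots of Trichoderma virens ATCC 9645 spores at 15,000 spores ml^−1 in potato dextrose broth. Cultures were grown at 30 °C in 96-well plates, and OD600 was measured at 40 h and 72 h. Each growth value is a mean of duplicate screens, expressed relative to the control with neither agent.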

Row | SMILES | growth yield (40 h) | growth yield (72 h)
1 | Nc1nnc(-c2cccc(Cl)c2Cl)c(N)n1 [Lamotrigine] + CCCCNC(=O)OCC#CI [3-iodo-2-propynyl butylcarbamate (IPBC)] | 95.9 ± 3.5% | 99.95 ± 0.52%
2 | CC[C@@]1(O)C(=O)OCc2c1cc1n(c2=O)Cc2cc3c(CN(C)C)c(O)ccc3nc2-1 [Topotecan] + CCCCNC(=O)OCC#CI [3-iodo-2-propynyl butylcarbamate (IPBC)] | 117 ± 6.5% | 106 ± 5.6%
3 | Nc1nc(=O)[nH]cc1F [Flucytosine] + CCCCNC(=O)OCC#CI [3-iodo-2-propynyl butylcarbamate (IPBC)] | 88.5 ± 2.1% | 90.4 ± 0.63%
4 | Clc1cc(Cl)c(OCC#CI)cc1Cl [Haloprogin] + CCCCNC(=O)OCC#CI [3-iodo-2-propynyl butylcarbamate (IPBC)] | 5.24 ± 0.48% | 2.83 ± 1.6%
5 | CC(N)C(O)c1ccccc1 (stereo unspecified) [Phenylpropanolamine hydrochloride] + CCCCNC(=O)OCC#CI [3-iodo-2-propynyl butylcarbamate (IPBC)] | 97.1 ± 7.5% | 101 ± 3.5%
6 | Cc1nccn1CC1CCc2c(c3ccccc3n2C)C1=O (stereo unspecified) [Ondansetron Hydrochloride] + CCCCNC(=O)OCC#CI [3-iodo-2-propynyl butylcarbamate (IPBC)] | 78.78 ± 0.32% | 101 ± 11%
7 | CC(=O)NC[C@H]1CN(c2ccc(N3CCOCC3)c(F)c2)C(=O)O1 [Linezolid] + CCCCNC(=O)OCC#CI [3-iodo-2-propynyl butylcarbamate (IPBC)] | 79.6 ± 1.4% | 85.4 ± 1.5%
8 | CCOCCn1c(N2CCCN(C)CC2)nc2ccccc21 [Emedastine] + CCCCNC(=O)OCC#CI [3-iodo-2-propynyl butylcarbamate (IPBC)] | 75.6 ± 1.6% | 84.11 ± 0.42%
9 | CC[C@H](C)C(=O)O[C@H]1C[C@H](O)C=C2C=C[C@H](C)[C@H](CC[C@@H](O)C[C@@H](O)CC(=O)O)[C@H]21 [Pravastatin] + CCCCNC(=O)OCC#CI [3-iodo-2-propynyl butylcarbamate (IPBC)] | 56.9% | 58.5%
10 | CNCC[C@@H](Oc1ccccc1C)c1ccccc1 [Tomoxetine hydrochloride] + CCCCNC(=O)OCC#CI [3-iodo-2-propynyl butylcarbamate (IPBC)] | 78.31 ± 0.48% | 87.89 ± 0.84%
11 | O=C(CCCCC(=O)Nc1c(I)cc(I)c(C(=O)O)c1I)Nc1c(I)cc(I)c(C(=O)O)c1I [Iodipamide] + CCCCNC(=O)OCC#CI [3-iodo-2-propynyl butylcarbamate (IPBC)] | 86.4 ± 3.8% | 92.19 ± 0.73%
12 | O=C(O)Cc1cc(I)c(Oc2ccc(O)c(I)c2)c(I)c1 [Tiratricol, 3,3',5-triiodothyroacetic acid] + CCCCNC(=O)OCC#CI [3-iodo-2-propynyl butylcarbamate (IPBC)] | 44 ± 1.8% | 73.41 ± 0.63%
13 | COCCCOc1ccnc(C[S+]([O-])c2nc3ccccc3[nH]2)c1C (stereo unspecified) [Rabeprazole Sodium salt] + CCCCNC(=O)OCC#CI [3-iodo-2-propynyl butylcarbamate (IPBC)] | 97.1 ± 15% | 94.7 ± 5.1%
14 | CCCc1nc2c(C)cc(-c3nc4ccccc4n3C)cc2n1Cc1ccc(-c2ccccc2C(=O)O)cc1 [Telmisartan] + CCCCNC(=O)OCC#CI [3-iodo-2-propynyl butylcarbamate (IPBC)] | 92.3 ± 4.6% | 89.8 ± 3.4%
15 | CCCCOC(=O)c1ccc(O)cc1 [Butylparaben] + CCCCNC(=O)OCC#CI [3-iodo-2-propynyl butylcarbamate (IPBC)] | 27.5 ± 1.8% | 46.9 ± 3.2%
16 | CC(=O)/N=c1/sc(S(N)(=O)=O)nn1C [Methazolamide] + CCCCNC(=O)OCC#CI [3-iodo-2-propynyl butylcarbamate (IPBC)] | 110 ± 13% | 105 ± 7.7%
17 | CCCCC1C(=O)N(c2ccccc2)N(c2ccccc2)C1=O [Phenylbutazone] + CCCCNC(=O)OCC#CI [3-iodo-2-propynyl butylcarbamate (IPBC)] | 116 ± 9.8% | 108 ± 10%
18 | CCCC(=O)Nc1ccc(OCC(O)CNC(C)C)c(C(C)=O)c1 (stereo unspecified) [Acebutolol hydrochloride] + CCCCNC(=O)OCC#CI [3-iodo-2-propynyl butylcarbamate (IPBC)] | 91.65 ± 0.79% | 93.2 ± 1.8%
19 | CC(=O)Nc1ccc(OCC(O)CNC(C)C)cc1 (stereo unspecified) [Practolol] + CCCCNC(=O)OCC#CI [3-iodo-2-propynyl butylcarbamate (IPBC)] | 99.6 ± 11% | 103 ± 8.9%
20 | N=C(N=C(N)N)N1CCOCC1 [Moroxidine hydrochloride] + CCCCNC(=O)OCC#CI [3-iodo-2-propynyl butylcarbamate (IPBC)] | 102 ± 6.7% | 101 ± 5%
21 | CC(=O)OCC(=O)[C@@]12OC3(CCCC3)O[C@@H]1C[C@H]1[C@@H]3CCC4=CC(=O)C=C[C@]4(C)[C@@]3(F)[C@@H](O)C[C@@]12C [Amcinonide] + CCCCNC(=O)OCC#CI [3-iodo-2-propynyl butylcarbamate (IPBC)] | 90.4 ± 6.2% | 94.5 ± 5.1%
22 | Cc1c(F)c(N2CCNC(C)C2)cc2c1c(=O)c(C(=O)O)cn2C1CC1 (stereo unspecified) [Grepafloxacin] + CCCCNC(=O)OCC#CI [3-iodo-2-propynyl butylcarbamate (IPBC)] | 92.9 ± 9.4% | 94.5 ± 5.1%
23 | CCOC(=O)c1cncn1[C@H](C)c1ccccc1 [Etomidate] + CCCCNC(=O)OCC#CI [3-iodo-2-propynyl butylcarbamate (IPBC)] | 75.45 ± 0.16% | 90.6 ± 5.9%
